# According to PubChem BioAssay AID1460 (National Center for Advancing Translational Sciences (NCATS), 2008):
# Several values for one entry are separate records, joined by “and”; a condition that tells them apart may be missing. Equal entries are not always repeated. The whole screen tested about 270,000 compounds, of which about 5,800 (2.1%) were called active. This list was built around the results that the source calls inconclusive (neither active nor inactive); the mix of calls is not that of the screen. Calls follow the shape of the dose curve; as a rule, active = well fitted inhibition curve with a large enough effect; inconclusive = small, poorly fitted or top-dose-only effect; inactive = flat fitted curve, though single readings scatter. Where the call is inconclusive, the potency comes from a doubtful curve fit.
# Target: Microtubule-associated protein tau (Homo sapiens) (UniProt P10636)
# Experiment: qHTS for Inhibitors of Tau Fibril Formation, Thioflavin T Binding; also: nearly all actives have a fitted effect of over 55% in size
# Settings: recombinant tau K18 P301L (four-repeat tau fragment), heparin-induced fibrillization, ThT fluorescence; series mostly up to 57.4 µM
# Method in brief: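 Aggregation was driven by heparin (20 uM final) acting on recombinant tau […] bearing P301L in 100 mM sodium acetate pH 7; fibrils were detected with Thioflavin T.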
# % is scaled to controls: 0 for no effect and ±100 for the full control effect; potency is read from the fitted curve at half-maximal effect; tags tell the direction and shape of the fitted curve.
# UniProt P10636, sequence (P10636 whole entry, looked up): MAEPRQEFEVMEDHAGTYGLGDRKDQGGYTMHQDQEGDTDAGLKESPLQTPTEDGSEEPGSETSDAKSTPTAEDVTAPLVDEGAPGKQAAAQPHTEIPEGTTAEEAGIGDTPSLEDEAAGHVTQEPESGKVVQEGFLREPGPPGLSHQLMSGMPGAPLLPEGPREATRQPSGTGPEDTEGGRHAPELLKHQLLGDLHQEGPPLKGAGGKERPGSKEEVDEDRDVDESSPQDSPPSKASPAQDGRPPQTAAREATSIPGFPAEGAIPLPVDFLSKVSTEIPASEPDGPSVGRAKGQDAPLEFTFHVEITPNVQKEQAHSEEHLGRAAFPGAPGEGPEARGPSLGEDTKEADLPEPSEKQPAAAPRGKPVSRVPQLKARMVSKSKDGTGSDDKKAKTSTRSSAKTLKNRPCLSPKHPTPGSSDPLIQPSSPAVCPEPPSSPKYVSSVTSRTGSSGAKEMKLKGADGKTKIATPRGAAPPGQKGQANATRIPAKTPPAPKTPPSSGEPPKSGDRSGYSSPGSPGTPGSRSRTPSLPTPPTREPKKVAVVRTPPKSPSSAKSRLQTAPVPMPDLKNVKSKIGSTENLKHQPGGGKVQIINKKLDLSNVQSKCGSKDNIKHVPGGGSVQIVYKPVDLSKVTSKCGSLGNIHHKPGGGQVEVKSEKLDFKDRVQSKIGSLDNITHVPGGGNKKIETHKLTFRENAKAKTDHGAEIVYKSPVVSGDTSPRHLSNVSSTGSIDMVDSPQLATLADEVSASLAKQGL
row,Compound,Potency
1,O=C(N/N=C/c1c(O)n(Cc2ccccc2)c(=O)[nH]c1=O)c1ccccc1O,inactive
2,Clc1ccc(CSC(Cn2ccnc2)c2ccc(Cl)cc2Cl)cc1 (configuration not stated),"inconclusive: 39.8 µM [inhibitor, single point] and inconclusive: 15.8 µM [inhibitor, partial curve]"
3,CCOc1ccc(-c2nc(CSCC(=O)NCCc3ccc(OCC)c(OCC)c3)c(C)o2)cc1,"inconclusive: 5.01 µM [inhibitor, full curve]"
4,CC(C)CCn1c(N)c(C(=O)NCc2cccs2)c2nc3ccccc3nc21,inactive
5,C=CCN1C(=O)/C(=C/c2cc(C)n(-c3cccnc3)c2C)C(=O)NC1=S,active: 22.4 µM
6,C#CCOS(=O)OC1CCCCC1Oc1ccc(C(C)(C)C)cc1 (configuration not stated),inactive
7,CC(C)C1C(=O)N2CCCC2[C@]2(O)O[C@@](NC(=O)[C@@H]3C=C4c5cccc6[nH]cc(c56)C[C@H]4N(C)C3)(C(C)C)C(=O)N12 (some centres not stated),active: 20 µM
8,Cc1ccc(NC(=O)c2cnc3sc(N4CCOCC4)nn3c2=O)cc1N(C)C,"inconclusive: 28.2 µM [inhibitor, single point]"
9,NCCc1cc(O)c(O)cc1O,active: 7.08 µM
10,CNCc1ccccc1,"inconclusive: 35.5 µM [inhibitor, single point]"
11,OC(CNC1CCCCCCC1)c1ccccc1 (configuration not stated),inactive
12,CCOP(=O)(OCC)c1nc(-c2cccc3ccccc23)oc1N1CCCCC1,"inconclusive: 22.4 µM [inhibitor, partial curve]"
13,CCC(=NCc1ccc(F)cc1)c1c(O)n(C)c(=O)n(C)c1=O,inactive
14,Cc1sc(-n2c(C)cc(C=C3C(=O)NC(=O)NC3=O)c2C)c(C#N)c1C,inactive
15,Cc1cc(OCC(=O)Nc2c(C)n(C)n(-c3ccccc3)c2=O)c2c3c(c(=O)oc2c1)CCC3,inactive
16,O=[N+]([O-])c1cc(F)c(N2CCCCCC2)cc1N1CCNCC1,"inconclusive: 15.8 µM [inhibitor, partial curve]"
17,Fc1ccc(-c2nc3c(-c4ccc(F)cc4)cnn3cc2CCN2CCOCC2)cc1,"inconclusive: 31.6 µM [inhibitor, single point]"
18,COc1cc(O)c(C(=O)c2ccccc2)cc1S(=O)(=O)O,"inconclusive: 7.08 µM [inhibitor, single point]"
19,CCC(C)/C=C(C)/C=C/C1=CC2=C(Cl)C(=O)C(C)(OC(C)=O)C(=O)C2=CO1 (configuration not stated),"inconclusive: 11.2 µM [inhibitor, single point]"
20,Cc1cc([N+](=O)[O-])c2ccccc2[n+]1[O-],"inconclusive: 35.5 µM [inhibitor, single point]"
21,C/C(=N\Nc1ccccc1)c1c(O)n(C)c(=O)n(C)c1=O,"inconclusive: 35.5 µM [inhibitor, single point]"
22,CCOC(=O)c1ccc(NC(=O)c2sc3nc4c(cc3c2N)N2CCC4CC2)cc1,inactive
23,Cc1cc(C)cc(N2C(=O)/C(=C\c3ccc(N4CCN(C)CC4)o3)C(=O)NC2=S)c1,"inconclusive: 28.2 µM [inhibitor, partial curve]"

row,Compound,Potency
1,CC(=O)[C@H]1CC[C@H]2[C@@H]3CCC4=CC(=O)CC[C@]4(C)[C@H]3CC[C@]12C,"inconclusive: 39.8 µM [inhibitor, single point]"
2,CC(=O)N1CCN(c2ccc(OC[C@H]3CO[C@](Cn4ccnc4)(c4ccc(Cl)cc4Cl)O3)cc2)CC1,"inconclusive: 17.8 µM [inhibitor, partial curve] [middle of 5 runs]"
3,Cn1c(O)c(/C=N/Nc2ccccc2)c(=O)n(C)c1=O,"inconclusive: 25.1 µM [inhibitor, partial curve]"
4,Cn1cccc1/C=C1\C(=O)NC(=O)N(Cc2ccccc2Cl)C1=O,"inconclusive: 14.1 µM [inhibitor, partial curve]"
5,O=[N+]([O-])c1ccc(N2CCCCC2)c2ncccc12,active: 15.8 µM
6,O=C1c2ccccc2C(=O)c2c1ccc1c(=O)n(-c3ccccc3)[nH]c21,"inconclusive: 3.16 µM [inhibitor, full curve]"
7,O=C1NC(=O)C(=Cc2ccc(-c3cc(Cl)ccc3[N+](=O)[O-])o2)C(=O)N1,active: 7.94 µM
8,c1ccc(CCN2CCC(N3CCN(c4ccccc4)CC3)CC2)cc1,"inconclusive: 5.62 µM [inhibitor, partial curve]"
9,CC1CCCC(NC(=O)COC(=O)Cc2ccccc2)C1C (configuration not stated),"inconclusive: 5.62 µM [inhibitor, partial curve, poor fit]"
10,CCCCCOc1c(OC)ccc2cc(C(=O)NCc3ccc4c(c3)OCO4)c(=O)[nH]c12,inactive
11,O=C(c1ccc(Cl)cc1)C1CCCN(Cc2cccc3cnccc23)C1 (configuration not stated),"inconclusive: 39.8 µM [inhibitor, single point]"
12,Nc1c(C(=O)NCC2CCCO2)c2nc3ccccc3nc2n1Cc1ccco1 (configuration not stated),"inconclusive: 12.6 µM [inhibitor, partial curve]"
13,NC(=S)/N=C/c1c(O)[nH]c(=O)[nH]c1=O,"inconclusive: 25.1 µM [inhibitor, single point]"
14,CCN(CC)Cc1c[nH]c2ccccc12,"inconclusive: 25.1 µM [inhibitor, partial curve]"
15,O=C1NC(=O)N(c2ccc(Cl)cc2)C(=O)/C1=C\c1ccc(Sc2nc3ccccc3[nH]2)o1,active: 14.1 µM
16,Cc1ccc(C)c(N2CCN(C(=O)C3CCN(Cc4nc(-c5cccc(Cl)c5)oc4C)CC3)CC2)c1,"inconclusive: 25.1 µM [inhibitor, single point]"
17,Cc1cc(OCC(=O)OC(C)(C)C)c2c3c(c(=O)oc2c1)CCC3,inactive
18,O=C(Nc1ccc(Br)cc1C(=O)c1ccccc1)c1ccccc1,"inconclusive: 25.1 µM [inhibitor, single point]"
19,CCN1CCN(c2cc(N3CCCC3)c(F)cc2[N+](=O)[O-])CC1,"inconclusive: 39.8 µM [inhibitor, single point]"
20,Cc1cc(C)cc(Oc2nc3ccccn3c(=O)c2/C=C(\C#N)c2nc3ccccc3s2)c1,"inconclusive: 31.6 µM [inhibitor, single point]"
21,CN1CCN(c2ccc(/C=C3\C(=O)NC(=S)N(c4cccc(Br)c4)C3=O)o2)CC1,active: 15.8 µM
22,N[C@@H](Cc1c[nH]c2ccccc12)c1nnc(SCc2ccccc2)o1,"inconclusive: 20 µM [inhibitor, partial curve]"
23,CCCNc1nc(OC)nc(N2CC3CC(C2)c2cccc(=O)n2C3)n1 (configuration not stated),inactive

row,Compound,Potency
1,N#CC1=C(N)Oc2n[nH]c(-c3ccccc3)c2C1c1cccc(OC(=O)N2CCOCC2)c1 (configuration not stated),"inconclusive: 39.8 µM [inhibitor, single point]"
2,O=C(N/N=C/c1c(O)n(Cc2ccc(F)cc2)c(=O)[nH]c1=O)c1ccccc1O,"inconclusive: 6.31 µM [inhibitor, partial curve]"
3,C=CCn1c(O)c(/C=C2\C=Nc3ccccc32)c(=O)[nH]c1=O,"inconclusive: 22.4 µM [inhibitor, partial curve, poor fit]"
4,O=c1[nH]c(=O)n(-c2ccccc2)c(O)c1N=Nc1ccc(Br)cc1,"inconclusive: 39.8 µM [inhibitor, single point]"
5,S=c1[nH]c2cc(Br)cnc2[nH]1,active: 31.6 µM
6,O=C1NC(=O)c2c1c1c3ccccc3[nH]c1c1[nH]c3ccccc3c21,"inconclusive: 5.62 µM [inhibitor, partial curve]"
7,CCCC(C)C1(CC)C(=O)NC(=O)N=C1N (configuration not stated),inactive
8,COc1ccc(C(=O)C(Cc2ccccc2)N(C)C)cc1 (configuration not stated),"inconclusive: 22.4 µM [inhibitor, partial curve]"
9,CN(C)c1cccc2c(C#N)ccc(N(C)C)c12,"inconclusive: 35.5 µM [inhibitor, single point]"
10,CCOc1ccc(N2C(=O)NC(=O)/C(=C\c3ccccc3[N+](=O)[O-])C2=O)cc1,"inconclusive: 25.1 µM [inhibitor, partial curve, poor fit]"
11,CC(O)CNc1ccc([N+](=O)[O-])c2cccnc12 (configuration not stated),"inconclusive: 20 µM [inhibitor, partial curve]"
12,Cc1nn(Cc2ccccc2)c(C)c1C=C1C(=O)NC(=S)NC1=O,"inconclusive: 17.8 µM [inhibitor, partial curve]"
13,Cc1ccccc1C(=O)Nc1sc2c(c1C(=O)O)CCC(C(C)(C)C)C2 (configuration not stated),active: 20 µM
14,C1=C(c2c[nH]c3ccccc23)CCNC1,"inconclusive: 31.6 µM [inhibitor, single point]"
15,Cc1ccc2c(c1)=C/C(=C\c1c(O)[nH]c(=S)[nH]c1=O)C(=O)N=2,"inconclusive: 10 µM [inhibitor, partial curve]"
16,CC(=O)O[C@@H]1C[C@@]2(C)C(c3ccoc3)C[C@H]3O[C@]32[C@]2(C)C(=O)C(O)=C3C(C)(C)C(=O)C=C[C@]3(C)C12 (some centres not stated),active: 25.1 µM
17,CCC(CO)Nc1ccc([N+](=O)[O-])c2cccnc12 (configuration not stated),"inconclusive: 39.8 µM [inhibitor, single point]"
18,C=C(C)c1cc2cc(C(C)=O)c(O)cc2o1,"inactive and inconclusive: 17.8 µM [inhibitor, partial curve]"
19,CC1(O)C[C@]2(C)N(O)C3CCCC[C@@H]3N2O1 (some centres not stated),inactive
20,CC(C)C(=O)c1cn(Cc2ccccc2C#N)c2ccccc12,inactive
21,COc1ccc(NC(=O)c2ccco2)cc1NC(=O)COc1cccc(C)c1C,"inconclusive: 1 µM [inhibitor, full curve, poor fit]"
